About 50,000 (12%) of roughly 420,000 compounds were called active. This list was built around the results that the source calls inconclusive (neither active nor inactive); the mix of calls is not that of the screen. The call rests on the fitted dose curve; in most records, active means well fitted inhibition curve with a large enough effect; inconclusive means small, poorly fitted or top-dose-only effect; inactive means flat fitted curve, though single readings scatter. No potency is given beside an inconclusive call; the fits are too rough.
Assay: qHTS for Inhibitors of human tyrosyl-DNA phosphodiesterase 1 (TDP1): qHTS in cells in presence of CPT; further: nearly all actives have a fitted effect of over 55% in size
Details: chicken DT40 Tdp1-/-;hTDP1 cells + 20 nM CPT, ATP luminescence, 48 h; series mostly up to 46.2 µM
In short: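 Chicken DT40 Tdp1-/- cells complemented with human TDP1, 400 cells/well, exposed to compounds plus 20 nM camptothecin for at least 48 h at 37 C; viability read as ATP content by CellTiter-Glo luminescence.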
Potency means the concentration at half of the fitted maximal effect; tags describe the fitted curve by direction and shape.

| Structure (SMILES) | Potency |
| --- | --- |
| CCOCCCNC(=O)c1cn(CC)c2ccc(S(=O)(=O)N3CCc4ccccc4C3)cc2c1=O | inconclusive [inhibitor, single point] |
| CC(C)(C)OC(=O)N1CCC(c2c(C(=O)N3CCN(c4ccccn4)CC3)cnn2-c2ccccc2Cl)CC1 | inconclusive [inhibitor, single point] |
| NC1=C(Cl)C(=O)c2ccccc2C1=O | active: 5.17 µM |
| COc1ccc(C(=O)C2CCN(CC(=O)Nc3cc(C)cc(C)c3)CC2)cc1 | inconclusive [inhibitor, single point] |
| Cc1nc2ccccc2n1CCOc1ccccc1 | inconclusive [inhibitor, single point] |
| CCCCCCCCOC(=O)C1=C(C)Nc2nnnn2C1c1cccs1 (configuration not stated) | active: 16.4 µM |
| O=C(CN1C(=O)C(=O)N(CCC2=CCCCC2)C1=O)Nc1ccc(F)cc1F | inconclusive [inhibitor, single point] |
| CCOc1ccc(N=Cc2ccc(N(C)C)cc2)c(O)c1 | active: 14.6 µM |
| O=C(/C=C/c1cccs1)N1CCC2(CC1)Oc1ccc(Cl)cc1C(=O)C21CC(c2ccc(Cl)cc2)=NO1 (configuration not stated) | inactive |
| O=c1cc[nH]c2ccc(OC(F)(F)F)cc12 | inactive |
| CC(=O)c1ccc(NC(c2ccc(F)cc2)c2nnc(-c3ccccc3)o2)cc1 (configuration not stated) | active: 9.2 µM |
| CCOCCc1nn2c(=O)cc(COC(=O)CNC(=O)c3ccc(F)cc3)nc2s1 | inactive |
| CC(=O)c1ccc(S(=O)(=O)N2CCN(CC(=O)Nc3ccc(Cl)c([N+](=O)[O-])c3)CC2)cc1 | inconclusive [inhibitor, single point] |
| Cc1ccc([C@H]2C[C@@H](O)[C@H](n3cc(-c4ccc(F)cc4)nn3)CN2C(=O)c2cccs2)cc1 | inconclusive [inhibitor, single point] |
| Cn1cc(C(=O)N2CCN(c3ccccc3)CC2)c(=O)c2cc(S(=O)(=O)N3CCOCC3)ccc21 | inactive |
| CCn1c(Cn2nnc(-c3ccccc3)n2)nnc1SCC(=O)Nc1cccc(C(C)=O)c1 | inconclusive [inhibitor, single point] |
| OC(c1ccc(F)cc1)c1nc(-c2cc3ccccc3o2)cs1 (configuration not stated) | inconclusive [inhibitor, single point] |
| Cc1cc(N2CCCCC2)n2nc(C)c(-c3ccccc3)c2n1 | inconclusive [inhibitor, single point] |
| CCN(CC(=O)Nc1cccc(OC)c1)C(=O)c1ccco1 | inactive |
| CCc1ccc(Nc2sc(C(=O)c3ccccc3)c(N)c2S(C)(=O)=O)cc1 | inconclusive [inhibitor, single point] |
| Brc1ccc(-c2nnc3n2C2(CCCC2)Cc2ccccc2-3)o1 | inconclusive [inhibitor, single point] |

| Structure (SMILES) | Potency |
| --- | --- |
| Cc1ccc(CSc2nc(-c3ccc(C(C)(C)C)cc3)nc3cc(=O)[nH]n23)cc1 | inconclusive [inhibitor, single point] |
| CC(Oc1ccc(S(=O)(=O)N2CCCC2)cc1[N+](=O)[O-])C(=O)NC(C)c1ccccc1 (configuration not stated) | inconclusive [inhibitor, single point] |
| Cc1cc(C)c(S(=O)(=O)NCC23C=CC(O2)C2C(=O)N(c4ccccc4)C(=O)C23)c(C)c1 (configuration not stated) | inconclusive [inhibitor, single point] |
| O=C(Nc1ccc2nc3ccccc3nc2c1)c1ccccc1 | inconclusive [inhibitor, single point] |
| CCCCCCCCN1C(=O)[C@H](CC(=O)NCc2ccc(OC)c(OC)c2)C[C@@]2(C(=O)OCC)CCCC=C12 | inconclusive [inhibitor, single point] |
| O=S(=O)(Cc1ccccc1)N1CCN(Cc2c(F)cccc2Cl)CC1 | inconclusive [inhibitor, partial curve] |
| Cc1ccc(CN2CCCC2(C)C(=O)NC(C)C)cc1 (configuration not stated) | inconclusive [inhibitor, single point] |
| CN1CCN(c2ccccc2NC(=O)Cn2ncc3c([nH]c4ccccc43)c2=O)CC1 | inconclusive [inhibitor, single point] |
| COc1cccc(OC)c1C(=O)N1CC(C)OC(C)C1 (configuration not stated) | inactive |
| CCOc1ccc(CC(=O)NCCc2csc(-c3ccc(Cl)cc3)n2)cc1 | inconclusive [inhibitor, single point] |
| CCOc1ccc(NC(=O)CN(C)C(=O)c2ccccc2OCCOc2ccccc2)cc1OCC | inconclusive [inhibitor, single point] |
| Cc1ccc(S(=O)(=O)NNC(=O)Nc2ccc([N+](=O)[O-])cc2)c(C)c1 | inconclusive [inhibitor, single point] |
| COc1ccc(OCc2nc3ccc(S(=O)(=O)Nc4ccccc4Cl)cc3[nH]2)cc1 | inconclusive [inhibitor, partial curve] |
| CN(C1CCS(=O)(=O)C1)S(=O)C12CC3CC(CC(C3)C1)C2 (configuration not stated) | inactive |
| O=S(=O)(O)c1cccc2c(N=Nc3ccc(O)c4ncccc34)cccc12 | inconclusive [inhibitor, single point] |
| COc1ccc(/C(C)=N\Nc2nc(-c3ccc(Cl)cc3)cc(C(F)(F)F)n2)cc1OC | inconclusive [inhibitor, single point] |
| COc1ccc(S(=O)(=O)N2CCCCC2)cc1NC(=O)c1cccc(S(=O)(=O)N2CCOCC2)c1 | inconclusive [inhibitor, partial curve] |
| COc1ccc(CNC(=O)Nc2ccccc2)cc1 | inconclusive [inhibitor, single point] |
| C/C(=N\Nc1ccc([N+](=O)[O-])cc1)c1ccc(O)cc1 | inconclusive [inhibitor, single point] |
| NC(=O)[C@@H]1CCCN1C(=O)c1cc(COc2ccc(F)cc2F)on1 | inactive |
| NS(=O)(=O)c1ccc(CNC(=O)Cc2ccccc2[N+](=O)[O-])cc1 | inactive |

From PubChem BioAssay AID686979 (National Center for Advancing Translational Sciences (NCATS), 2013)
